Assay results from PMC4336329 (PLoS ONE, 2015).
In all, about 310,000 compounds went through this assay and about 2,200 (0.71%) showed an effect of 50% or more. Effects have a minus sign here. The list shows a part of the results.

molecular target: human ether-à-go-go-related gene (hERG) potassium channel (human, UniProt Q12809); experiment: primary screen, population patch clamp on CHO cells stably expressing hERG
Sequence (Q12809 whole entry, looked up): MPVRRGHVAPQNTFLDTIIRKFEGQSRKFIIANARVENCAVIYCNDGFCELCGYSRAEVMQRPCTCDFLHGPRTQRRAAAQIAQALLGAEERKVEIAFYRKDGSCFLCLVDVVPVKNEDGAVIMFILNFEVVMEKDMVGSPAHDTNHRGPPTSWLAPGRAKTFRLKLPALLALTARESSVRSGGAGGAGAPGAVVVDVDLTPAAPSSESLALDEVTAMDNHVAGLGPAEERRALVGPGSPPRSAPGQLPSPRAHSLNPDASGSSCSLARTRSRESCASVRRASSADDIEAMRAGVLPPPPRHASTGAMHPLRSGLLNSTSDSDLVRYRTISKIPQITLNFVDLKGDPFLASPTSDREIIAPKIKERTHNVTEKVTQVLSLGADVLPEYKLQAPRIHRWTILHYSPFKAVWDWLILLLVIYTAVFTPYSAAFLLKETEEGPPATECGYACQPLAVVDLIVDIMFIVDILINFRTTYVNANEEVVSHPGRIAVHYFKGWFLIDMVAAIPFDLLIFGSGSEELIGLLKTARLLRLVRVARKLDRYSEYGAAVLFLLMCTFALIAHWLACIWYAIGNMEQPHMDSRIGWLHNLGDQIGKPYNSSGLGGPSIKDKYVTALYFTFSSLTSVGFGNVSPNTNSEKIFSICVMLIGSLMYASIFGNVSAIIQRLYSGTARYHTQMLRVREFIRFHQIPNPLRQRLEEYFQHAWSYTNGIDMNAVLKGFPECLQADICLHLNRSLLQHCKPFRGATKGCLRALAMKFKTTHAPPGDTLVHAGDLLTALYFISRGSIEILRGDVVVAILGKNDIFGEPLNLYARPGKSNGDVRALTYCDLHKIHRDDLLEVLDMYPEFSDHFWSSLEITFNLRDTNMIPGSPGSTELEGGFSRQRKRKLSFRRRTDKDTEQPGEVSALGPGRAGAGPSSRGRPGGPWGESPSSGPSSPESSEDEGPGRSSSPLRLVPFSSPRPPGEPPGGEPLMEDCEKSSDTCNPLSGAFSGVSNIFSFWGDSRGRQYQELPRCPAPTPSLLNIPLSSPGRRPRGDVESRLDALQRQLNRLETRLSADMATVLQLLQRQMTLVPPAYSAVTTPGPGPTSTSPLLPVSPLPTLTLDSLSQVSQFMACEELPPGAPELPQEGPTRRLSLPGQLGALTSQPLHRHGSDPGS

Going from `COc1ccc(OC)c(-c2cc(C(=O)NCc3cccs3)no2)c1` to `COc1cc(C(=O)n2cnc3ccccc32)c([N+](=O)[O-])cc1OC`, the “hERG current change (%, negative = inhibition) at 1uM” value rises from -0.423% to 12%.

Compared with `CCOc1ccccc1CNC(=O)C1Cc2cc(S(=O)(=O)N3CCCCC3)ccc2N1C(C)=O` (centres unmarked), `CCOc1ccc(CN2C(=O)c3ccccc3C2=O)cc1C(=O)N1CCC(C(N)=O)CC1` is higher in “hERG current change (%, negative = inhibition) at 1uM” value: 5.07% for the first, 12% for the second.

Going from `CCCn1c(NC(=O)c2ccccc2)nc2ccccc21` to `Cn1c(N)c(C(=O)CSc2nc3ccccc3n2-c2ccccc2)c(=O)n(C)c1=O`, the “hERG current change (%, negative = inhibition) at 1uM” value rises from -2.01% to 7.99%.

First: CCOC(=O)c1[nH]c(C)c(C(=O)Nc2ccc(C)c(F)c2)c1C
Second: Cc1ccc(C)c(C(=O)COC(=O)c2cc([N+](=O)[O-])ccc2NCCO)c1
The “hERG current change (%, negative = inhibition) at 1uM” value of the first is higher: 9.69% for the first, 5.06% for the second.

Going from `Cc1ccc(S(=O)(=O)CC(=O)Nc2nc3ccccc3s2)cc1` to `Cc1ccc(S(=O)(=O)NCC(=O)OCC(=O)N(Cc2ccccc2)C(C)(C)C)cc1`, the “hERG current change (%, negative = inhibition) at 1uM” value falls from 16.7% to 5.51%.

Compared with `C=CCN1C(=O)CSc2ccc(C(=O)NC(C)c3ccccc3)cc21` (centres unmarked), `Cc1c(NC(=O)c2ccc(CC(C)C)o2)c(=O)n(-c2ccccc2)n1C` is higher in “hERG current change (%, negative = inhibition) at 1uM” value: 10.3% for the first, 14% for the second.

First: CN(Cc1nc2ccccc2[nH]1)C(=O)C1CCC(=O)N(CCc2cccc(F)c2)C1 (centres unmarked)
Second: Cc1onc(-c2c(F)cccc2Cl)c1C(=O)Nc1nc2ccccc2[nH]1
The “hERG current change (%, negative = inhibition) at 1uM” value of the first is higher: 15.1% for the first, 6.47% for the second.

Compared with `O=C(O)/C=C/C(=O)O.c1ccc(CCC2=NCCn3cccc32)cc1`, `CN1Cc2cccc3c2C(Cc2ccccc2S3)C1.O=C(O)/C=C\C(=O)O` (centres unmarked) is higher in “hERG current change (%, negative = inhibition) at 1uM” value: 6.02% for the first, 11.3% for the second.

First: COc1ccc(NC(=O)CN2CCN(CC(=O)Nc3ccc(F)cc3)CC2)cc1Cl
Second: COc1ccc2oc(=O)c(C(=O)N3CCN(c4ccc(F)cc4)CC3)cc2c1
The “hERG current change (%, negative = inhibition) at 1uM” value of the first is lower: -88.6% for the first, -5.38% for the second.

Going from `c1cncc(-c2noc(-c3cccc4ccccc34)n2)c1` to `c1ccc(-c2nc3cccnc3nc2-c2ccccc2)cc1`, the “hERG current change (%, negative = inhibition) at 1uM” value falls from 10.7% to 6.07%.

Compared with `Cc1cc(OCCOc2cccc3cccnc23)c(C)cc1Cl`, `Cc1ccc(NC(=O)NCc2ccccn2)cc1Cl` is higher in “hERG current change (%, negative = inhibition) at 1uM” value: -0.287% for the first, 14.9% for the second.

Going from `CC(C)n1cnc2cc(NCc3ccccc3O)ccc21` to `COc1ccccc1CNc1ccc2c(c1)CCC2`, the “hERG current change (%, negative = inhibition) at 1uM” value falls from 20% to 9.21%.

First: O=C(O)Cn1nc(-c2ccccc2)c2ccccc2c1=O
Second: CN1C(=O)C(O)(c2nnc(-c3ccccc3)o2)c2ccccc21 (centres unmarked)
The “hERG current change (%, negative = inhibition) at 1uM” value of the first is higher: 16.8% for the first, 8.19% for the second.

First: O=C(N/N=C/c1c[nH]c2ccccc12)c1ccccc1Cl
Second: Cc1cccc(/C(N)=N/OC(=O)c2ccccc2Cl)c1
The “hERG current change (%, negative = inhibition) at 1uM” value of the first is higher: 5.51% for the first, 2.11% for the second.

First: Cc1oc(-c2cccs2)nc1CN1CCN(CCC(C)C)C(CCO)C1 (centres unmarked)
Second: C/C=C/c1ccc(OCCCCN2CCN(CC)CC2)c(OC)c1.O=C(O)C(=O)O
The “hERG current change (%, negative = inhibition) at 1uM” value of the first is higher: 0.0981% for the first, -2.47% for the second.

Compared with `COc1ccc(C2=[N+]([O-])C(C)(C)N(O)C2(C)C)cc1`, `COc1ccc(NC(=O)c2cc(S(=O)(=O)N3CCOCC3)cs2)cc1` is higher in “hERG current change (%, negative = inhibition) at 1uM” value: 10.1% for the first, 17.9% for the second.

First: Cc1ccc(N2CCN(/N=C/C3=C(N4CCOCC4)C(=C\c4ccccc4)/CC3)CC2)cc1
Second: Clc1ccc(/C=N/N2CCN(Cc3ccccc3)CC2)cc1
The “hERG current change (%, negative = inhibition) at 1uM” value of the first is higher: 16.3% for the first, 15.2% for the second.

Going from `Cc1ccc(-n2cc(CN3CCC(O)(c4ccccn4)CC3)c(-c3ccc(F)cc3)n2)cc1` to `Cc1ccc(Nc2ccc(C(=O)NCCc3ccccc3)cn2)cc1`, the “hERG current change (%, negative = inhibition) at 1uM” value rises from 2.68% to 3.46%.

Going from `CCOc1ccc(/C=C/C(=O)CCC(=O)O)cc1` to `Cn1cc(Br)c(-c2cccc(NC(=O)CCC(=O)O)c2)n1`, the “hERG current change (%, negative = inhibition) at 1uM” value falls from 11.6% to 5.72%.

Compared with `S=C(Nc1ccc(Oc2ccccc2)cc1)NC1CCCCCC1`, `Cc1nc2ccccc2n1CC(=O)NC1CCCCCC1` is lower in “hERG current change (%, negative = inhibition) at 1uM” value: 10.4% for the first, -6.18% for the second.

First: COc1ccccc1N(Cc1ccccc1)S(=O)(=O)c1cccc(C(=O)Nc2cccc(C)n2)c1
Second: COc1ccccc1C(=O)N/C(=C/c1cccc([N+](=O)[O-])c1)C(=O)Nc1cccc(C(=O)O)c1
The “hERG current change (%, negative = inhibition) at 1uM” value of the first is lower: 11.6% for the first, 14.2% for the second.

First: Cc1cc(C)c(C(N)=O)c(Nc2cccc(Cl)c2)n1
Second: N#Cc1ccccc1NC(=O)Nc1cccc(Cl)c1
The “hERG current change (%, negative = inhibition) at 1uM” value of the first is higher: 12.6% for the first, 3.29% for the second.

First: CCCn1c(SCc2cc(=O)[nH]c3ccccc23)nc2c1c(=O)n(C)c(=O)n2C
Second: Cc1ccc(NS(=O)(=O)c2ccc3c(c2)n(C)c(=O)n3C)cc1
The “hERG current change (%, negative = inhibition) at 1uM” value of the first is higher: 0.116% for the first, 0.0392% for the second.

Going from `COc1cc(C(=O)Nc2nccs2)c(Br)c(OC)c1OC` to `COc1cc(NC(=O)COc2cccc3c2OC(C)(C)C3)cc(OC)c1OC`, the “hERG current change (%, negative = inhibition) at 1uM” value falls from 16% to 9.18%.

Going from `CCOC(=O)NC1(C(F)(F)F)NC(=O)N(c2ccc(F)cc2)C1=O` (centres unmarked) to `CCOC(=O)C1C(=O)C=C(c2ccc(C)cc2)CC1c1ccccc1` (centres unmarked), the “hERG current change (%, negative = inhibition) at 1uM” value rises from 9.82% to 12.4%.

First: CN(C(=O)CSc1nnc(-c2cccc(F)c2)n1N)C1CCS(=O)(=O)C1 (centres unmarked)
Second: Cc1cccc(C)c1OCC(=O)N(Cc1ccco1)C1CCS(=O)(=O)C1 (centres unmarked)
The “hERG current change (%, negative = inhibition) at 1uM” value of the first is higher: 7.58% for the first, -3.78% for the second.

Going from `Clc1ccc(OCCCn2ccnc2)c(Br)c1.O=C(O)C(=O)O` to `O=C(COC(=O)c1cnccn1)NCCc1ccc(Cl)cc1Cl`, the “hERG current change (%, negative = inhibition) at 1uM” value rises from 2.88% to 9.09%.

First: O=C(NCc1cccnc1)C1CC(c2ccc(F)cc2)=NO1 (centres unmarked)
Second: O=C(O)c1cccc(-c2nnn(Cc3ccccc3)n2)c1
The “hERG current change (%, negative = inhibition) at 1uM” value of the first is lower: 0.21% for the first, 13.2% for the second.

Compared with `O=C(Nc1nnc(C2CC2)o1)c1ccc(S(=O)(=O)N2CCc3ccccc3C2)cc1`, `O=C(Nc1nnc(C2CCCCC2)s1)C1CC(=O)N(c2ccccc2)C1` (centres unmarked) is higher in “hERG current change (%, negative = inhibition) at 1uM” value: 3.26% for the first, 9.99% for the second.

First: Cn1c(SCc2c(F)cccc2Cl)nnc1-c1cnccn1
Second: O=C(Oc1ccccc1)c1ccc2nccnc2c1
The “hERG current change (%, negative = inhibition) at 1uM” value of the first is higher: 11.2% for the first, 3.76% for the second.

Going from `Oc1c(/C=N/c2ncn[nH]2)ccc2ccccc12` to `COc1ccc(/C=C2\NC(=O)C(C=NCc3ccccc3)=C2O)cc1`, the “hERG current change (%, negative = inhibition) at 1uM” value rises from -4.85% to 3.4%.

Going from `Cc1c(C(=O)C(=O)NCc2ccco2)c2ccccc2n1C` to `Cc1ccccc1NC(=O)Cc1nc(COC(=O)/C=C/c2ccccc2)cs1`, the “hERG current change (%, negative = inhibition) at 1uM” value falls from 4.06% to -0.378%.

First: CC(NC(=O)C1CCCCC1)C(c1cccs1)N1CCOCC1 (centres unmarked)
Second: O=C(CSc1ncccn1)NN=C1CCCCCC1
The “hERG current change (%, negative = inhibition) at 1uM” value of the first is higher: 10.9% for the first, 5.63% for the second.

First: O=C(NC12CC3CC(CC(C3)C1)C2)c1cccnc1Cl
Second: O=C(c1cc2ncc(CCCl)cn2n1)N1CCCCCC1
The “hERG current change (%, negative = inhibition) at 1uM” value of the first is lower: 13.3% for the first, 20.3% for the second.

Compared with `Cc1ccc(CNC(=O)CCSCCC(=O)NCc2ccc(C)cc2)cc1`, `Cc1cccc(OCC(=O)NCCCNC(=O)c2ccccn2)c1` is lower in “hERG current change (%, negative = inhibition) at 1uM” value: 10.4% for the first, 5.83% for the second.

Going from `Cc1cccc(NC(=O)CCC(=O)c2cccs2)n1` to `CC(=O)Nc1cccc(/C(C)=N/NC(=O)c2ccc(NS(=O)(=O)c3cccs3)cc2)c1`, the “hERG current change (%, negative = inhibition) at 1uM” value falls from 18.7% to 5.87%.

Compared with `Cc1ccc(S(=O)(=O)N2CCOCC2)cc1NC(=O)CSc1nccn1C`, `NC(=O)CC(NC(=O)Cc1ccc(Br)cc1)c1ccc(N2CCC(N3CCCC3)CC2)c([N+](=O)[O-])c1` (centres unmarked) is higher in “hERG current change (%, negative = inhibition) at 1uM” value: 7.91% for the first, 9.26% for the second.

First: Cc1cc(C)nc(N/N=C2/CCSc3ccc(F)cc32)n1
Second: CCOC(=O)c1ccccc1NC1c2ccccc2C(=O)N1c1ccc(C)cn1 (centres unmarked)
The “hERG current change (%, negative = inhibition) at 1uM” value of the first is lower: 8.52% for the first, 10.3% for the second.

First: COc1cc2c(c3oc(=O)cc(CC(=O)O)c13)CCC(C)(C)O2
Second: COc1cc2c(cc1OC)[C@H](C)N(C(=O)COc1ccccc1)CC2
The “hERG current change (%, negative = inhibition) at 1uM” value of the first is lower: 1.4% for the first, 7.65% for the second.

First: CC(=O)Nc1ccc(NC(=O)C2CCC(N3C(=O)C4C5C=CC(C6CC56)C4C3=O)CC2)cc1 (centres unmarked)
Second: Cc1cc(C(=O)CN2C(=O)C(=O)N(Cc3ccccc3)C2=O)c(C)n1CC1COc2ccccc2O1 (centres unmarked)
The “hERG current change (%, negative = inhibition) at 1uM” value of the first is lower: 11.5% for the first, 14.3% for the second.

First: CCOc1cc2[nH]c(=S)n(Cc3ccc(C(=O)NCCN(CC)CC)cc3)c(=O)c2cc1OCC
Second: CCOc1ccccc1C(=O)OCC(=O)Nc1cc(Cl)ccc1Oc1ccccc1
The “hERG current change (%, negative = inhibition) at 1uM” value of the first is higher: 12.1% for the first, 7.72% for the second.

First: O=S1(=O)CCN2N=C(C3CC3)SC2=N1
Second: CC(C)C1N=C2c3ccccc3N=C(SCC(=O)c3ccc(O)c(O)c3)N2C1=O (centres unmarked)
The “hERG current change (%, negative = inhibition) at 1uM” value of the first is higher: 15% for the first, -8.39% for the second.

Going from `Nc1nonc1-n1nnc(C(=O)N/N=C/c2ccccc2)c1CN1CCc2ccccc21` to `COc1ccccc1/C=C/C=N/N1CCN(Cc2ccccc2)CC1`, the “hERG current change (%, negative = inhibition) at 1uM” value falls from 12.2% to 8.51%.

First: Cc1nc2ncnn2c(C)c1CCC(=O)O
Second: Cc1coc2c1C(=O)C(=O)c1c-2ccc2c(C)cccc12
The “hERG current change (%, negative = inhibition) at 1uM” value of the first is lower: -1.73% for the first, 10% for the second.

`O=S(=O)(Nc1cccc(Cl)c1)c1ccc2oc(=S)[nH]c2c1` was tested, and the “hERG current change (%, negative = inhibition) at 1uM” value was 18%.
